# Measurements from the supplement of paper PMC8728848.
# The other results are listed elsewhere or left out.
# B1: CVN (Nostoc ellipsosporum), P81180 (protein)
# chain: LGKFSQTCYNSAIQGSVLTSTCERTNGGYNTSSIDLNSVIENVDGSLKWQPSNFIETCRNTQLAGSSELAAECKTRAQQFVSTKINLDDHIANIDGTLKYE
# Columns and labels:
# Assay in all cases: glycan array binding signal (z-score within array); higher = stronger binding
# Settings in all cases: glycan notation: IUPAC condensed, linker removed
# [1] = target: Neu5Ac(a2-6)Gal(b1-4)GlcNAc(b1-2)Man(a1-3)[GlcNAc(b1-2)Man(a1-6)]Man(b1-4)GlcNAc(b1-4)GlcNAc
# Method in brief: (§1)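 Glycan array binding is given as a within-array Z-score, which can be read as non-binding when negative. The arrays, 3228 of them, came from the Consortium for Functional Glycomics database and were retained only where the protein sequence was available. Z-scores were averaged across arrays of the same protein sequence at different concentrations or buffers and across linkers.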
# [2] = target: Neu5Ac(a2-6)Gal(b1-4)GlcNAc(b1-2)Man(a1-3)[GlcNAc(b1-2)Man(b1-4)GlcNAc(b1-2)Man(a1-6)]Man(b1-4)GlcNAc(b1-4)GlcNAc
# Method in brief: as §1
# [3] = target: Neu5Ac(a2-6)Gal(b1-4)GlcNAc(b1-2)Man(a1-3)[Man(a1-6)]Man(b1-4)GlcNAc(b1-4)GlcNAc
# Method in brief: as §1
# [4] = target: Neu5Ac(a2-6)Gal(b1-4)GlcNAc(b1-2)Man(a1-3)[Neu5Ac(a2-6)Gal(b1-4)GlcNAc(b1-2)Man(a1-6)]Man(b1-4)GlcNAc(b1-4)GlcNAc
# Method in brief: as §1
# [5] = target: Neu5Ac(a2-6)Gal(b1-4)GlcNAc(b1-2)Man(a1-6)Man(b1-4)GlcNAc(b1-4)GlcNAc
# Method in brief: as §1
# [6] = target: Neu5Ac(a2-6)Gal(b1-4)GlcNAc(b1-2)Man(a1-6)[Gal(b1-4)GlcNAc(b1-2)Man(a1-3)]Man(b1-4)GlcNAc(b1-4)GlcNAc
# Method in brief: as §1
# [7] = target: Neu5Ac(a2-6)Gal(b1-4)GlcNAc(b1-2)Man(a1-6)[GlcNAc(b1-2)Man(a1-3)]Man(b1-4)GlcNAc(b1-4)GlcNAc
# Method in brief: as §1
# [8] = target: Neu5Ac(a2-6)Gal(b1-4)GlcNAc(b1-2)Man(a1-6)[Man(a1-3)]Man(b1-4)GlcNAc(b1-4)GlcNAc
# Method in brief: as §1
# [9] = target: Neu5Ac(a2-6)Gal(b1-4)GlcNAc(b1-3)Gal(b1-3)GlcNAc
# Method in brief: as §1
# [10] = target: Neu5Ac(a2-6)Gal(b1-4)GlcNAc(b1-3)Gal(b1-4)GlcNAc
# Method in brief: as §1
# [11] = target: Neu5Ac(a2-6)Gal(b1-4)GlcNAc(b1-3)Gal(b1-4)GlcNAc(b1-3)Gal(b1-4)GlcNAc
# Method in brief: as §1
# [12] = target: Neu5Ac(a2-6)Gal(b1-4)GlcNAc(b1-3)Gal(b1-4)[Fuc(a1-3)]GlcNAc(b1-3)Gal(b1-4)[Fuc(a1-3)]GlcNAc
# Method in brief: as §1
# [13] = target: Neu5Ac(a2-6)Gal(b1-4)GlcNAc(b1-3)GalNAc
# Method in brief: as §1
# [14] = target: Neu5Ac(a2-6)Gal(b1-4)GlcNAc6S
# Method in brief: as §1
# Neu5Ac(a2-6)GalNAc = target: Neu5Ac(a2-6)GalNAc
# Method in brief: as §1
# [15] = target: Neu5Ac(a2-6)GalNAc(b1-4)GlcNAc
# Method in brief: as §1
# [16] = target: Neu5Ac(a2-6)GlcNAc(b1-4)GlcNAc
# Method in brief: as §1
# [17] = target: Neu5Ac(a2-6)GlcNAc(b1-4)GlcNAc(b1-4)GlcNAc
# Method in brief: as §1
# Neu5Ac(a2-8)Neu5Ac = target: Neu5Ac(a2-8)Neu5Ac
# Method in brief: as §1
# [18] = target: Neu5Ac(a2-8)Neu5Ac(a2-3)Gal(b1-3)GalNAc(b1-4)[Neu5Ac(a2-8)Neu5Ac(a2-3)]Gal(b1-4)Glc
# Method in brief: as §1
# [19] = target: Neu5Ac(a2-8)Neu5Ac(a2-3)Gal(b1-4)Glc
# Method in brief: as §1
# [20] = target: Neu5Ac(a2-8)Neu5Ac(a2-3)[Gal(b1-3)GalNAc(b1-4)]Gal(b1-4)Glc
# Method in brief: as §1
# [21] = target: Neu5Ac(a2-8)Neu5Ac(a2-3)[GalNAc(b1-4)]Gal(b1-4)Glc
# Method in brief: as §1
# [22] = target: Neu5Ac(a2-8)Neu5Ac(a2-8)Neu5Ac
# Method in brief: as §1
# [23] = target: Neu5Ac(a2-8)Neu5Ac(a2-8)Neu5Ac(a2-3)Gal(b1-4)Glc
# Method in brief: as §1
# [24] = target: Neu5Ac(a2-8)Neu5Ac(a2-8)Neu5Ac(a2-3)[GalNAc(b1-4)]Gal(b1-4)Glc
# Method in brief: as §1
# [25] = target: Neu5Ac(a2-8)Neu5Ac(a2-8)Neu5Ac(a2-8)Neu5Ac(a2-3)[GalNAc(b1-4)]Gal(b1-4)Glc
# Method in brief: as §1
# [26] = target: Neu5Ac(b2-6)Gal(b1-4)GlcNAc
# Method in brief: as §1
# Neu5Ac(b2-6)GalNAc = target: Neu5Ac(b2-6)GalNAc
# Method in brief: as §1
# [27] = target: Neu5Ac9Ac(a2-3)Gal(b1-3)GlcNAc
# Method in brief: as §1
# [28] = target: Neu5Ac9Ac(a2-3)Gal(b1-4)GlcNAc
# Method in brief: as §1
# [29] = target: Neu5Ac9Ac(a2-6)Gal(b1-4)GlcNAc
# Method in brief: as §1
# [30] = target: Neu5Gc(a2-3)Gal(b1-3)GlcNAc
# Method in brief: as §1
# [31] = target: Neu5Gc(a2-3)Gal(b1-3)[Fuc(a1-4)]GlcNAc
# Method in brief: as §1
# Neu5Gc(a2-3)Gal(b1-4)Glc = target: Neu5Gc(a2-3)Gal(b1-4)Glc
# Method in brief: as §1
# [32] = target: Neu5Gc(a2-3)Gal(b1-4)GlcNAc
# Method in brief: as §1
# [33] = target: Neu5Gc(a2-3)Gal(b1-4)[Fuc(a1-3)]GlcNAc
# Method in brief: as §1
# [34] = target: Neu5Gc(a2-6)Gal(b1-4)GlcNAc
# Method in brief: as §1
# Neu5Gc(a2-6)GalNAc = target: Neu5Gc(a2-6)GalNAc
# Method in brief: as §1
# [35] = target: Neu5Gc(b2-6)Gal(b1-4)GlcNAc
# Method in brief: as §1
binder,measurement,setting,value
B1,glycan array binding signal (z-score),[1],-0.304
same,glycan array binding signal (z-score),[2],-0.303
same,glycan array binding signal (z-score),[3],-0.303
same,glycan array binding signal (z-score),[4],-0.295
same,glycan array binding signal (z-score),[5],-0.307
same,glycan array binding signal (z-score),[6],-0.303
same,glycan array binding signal (z-score),[7],-0.304
same,glycan array binding signal (z-score),[8],-0.305
same,glycan array binding signal (z-score),[9],-0.302
same,glycan array binding signal (z-score),[10],-0.284
same,glycan array binding signal (z-score),[11],-0.307
same,glycan array binding signal (z-score),[12],0.537
same,glycan array binding signal (z-score),[13],0.701
same,glycan array binding signal (z-score),[14],-0.304
same,glycan array binding signal (z-score),Neu5Ac(a2-6)GalNAc,-0.303
same,glycan array binding signal (z-score),[15],-0.3
same,glycan array binding signal (z-score),[16],-0.3
same,glycan array binding signal (z-score),[17],-0.293
same,glycan array binding signal (z-score),Neu5Ac(a2-8)Neu5Ac,-0.304
same,glycan array binding signal (z-score),[18],-0.296
same,glycan array binding signal (z-score),[19],-0.303
same,glycan array binding signal (z-score),[20],-0.246
same,glycan array binding signal (z-score),[21],-0.295
same,glycan array binding signal (z-score),[22],-0.305
same,glycan array binding signal (z-score),[23],-0.303
same,glycan array binding signal (z-score),[24],-0.237
same,glycan array binding signal (z-score),[25],-0.203
same,glycan array binding signal (z-score),[26],-0.302
same,glycan array binding signal (z-score),Neu5Ac(b2-6)GalNAc,-0.304
same,glycan array binding signal (z-score),[27],-0.304
same,glycan array binding signal (z-score),[28],-0.302
same,glycan array binding signal (z-score),[29],-0.301
same,glycan array binding signal (z-score),[30],-0.298
same,glycan array binding signal (z-score),[31],-0.296
same,glycan array binding signal (z-score),Neu5Gc(a2-3)Gal(b1-4)Glc,-0.298
same,glycan array binding signal (z-score),[32],-0.305
same,glycan array binding signal (z-score),[33],-0.289
same,glycan array binding signal (z-score),[34],-0.3
same,glycan array binding signal (z-score),Neu5Gc(a2-6)GalNAc,-0.308
same,glycan array binding signal (z-score),[35],-0.306
